# Values marked as one replicate rest on one cluster of the flow cell; about a third of the high ones do not repeat.
# Tested on: ATP
# Assay: switch fluorescence ratio, 500 uM ATP over buffer (Cy3 cluster intensity, sum of 5 cycles each) (fold (ratio)); higher = stronger signal-on switching upon ATP binding; sequences stand for … in TCGTCGGCAGCGTCAGATGTGTATAAGAGACAGTTTTTTTTTTTTTTTTTTTTTTTTT…TC
# Details: aptamer strand: ATP DNA aptamer (quencher-CACCTGGGGGAGTATTGCGGAGGAAGG + anchor), 100 nM annealed; ATP concentration: 500 uM; one replicate
# Summary of the method: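 Switching-strand clusters labelled with Cy3 on a modified Illumina MiSeq flow-cell were annealed to 100 nM quencher-labelled ATP aptamer, imaged in selection buffer, and re-imaged after 15 min with 500 uM ATP at 22 °C. This was done over five cycles with NaOH stripping and re-annealing in between. The fluorescence ratio is summed target-cycle over summed buffer-cycle Cy3 intensity per cluster, averaged per switch-domain sequence, excluding clusters outside 100-1000 RFU.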
# 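Note: ATP exposure 15 min at 22 °C before imaging.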
row,Sequence,switch fluorescence ratio
1,CACGGCTGCG,0.993
2,TTGGTGCCAT,1.07
3,TTATCATAAT,0.965
4,GGTTTAAAA,0.955
5,TCTAGAGTTA,1.01
6,TGGGCGAAG,1.05
7,CATCGGGCCG,0.97
8,TTTCCTGCAT,0.978
9,ACATCGTCGT,0.939
10,AACATAAGCA,1.03
11,TGAATTTAAT,0.97
12,ACCCCGGTTT,1.01
13,GAGGGGCACC,1
14,GCAAGTGCGT,1.02
15,AGTGTAACGG,1.04
16,AAAGTTTTGC,1.02
17,TGATCACTCT,1.02
18,GTGTTTGCT,0.94
19,AAGTTTTTAA,0.986
20,TTTGTATGTG,0.984
21,TTGTAAT,0.989
22,CGCGTGCATC,1.02
23,AGATAGGGCG,1.05

row,Sequence,switch fluorescence ratio
1,TGGCGGAAAC,1.12
2,ATATGAAGTG,1.1
3,GTGCAACGGG,0.967
4,TTACGCCTGC,1.1
5,TCCGTTGAGC,1.11
6,TGATGCCGGG,0.931
7,ACTTTGGTTC,0.932
8,GCACTAGGAG,1.07
9,TACCGGCGAT,1.02
10,ATTTTACCGG,1.01
11,AGATGGTTT,1.04
12,TCAATAAACG,1.06
13,CACGGGAAGA,1.02
14,GCTTGGTGCG,0.978
15,GTTCACGCTG,0.955
16,AATAGAGAG,0.994
17,TTATAAACTC,1.06
18,CGTATCTAGT,0.962
19,TTAGCGTCAG,1.02
20,GCGTTATCTA,0.989
21,GGTCCACAAA,0.968
22,AAAACATTG,0.979
23,ATTAACAGAG,1.01

row,Sequence,switch fluorescence ratio
1,TAACCGTCTT,1.05
2,AACCAATTAG,1
3,AATCTGTAGT,1.03
4,GTTTGAACCC,0.975
5,CGTTTCAGCA,0.971
6,CTGTTTTAGT,1
7,CAATTCTCAG,1.09
8,TACTAATTTT,1.04
9,ATGCGCATTG,0.985
10,GGGGGATCCT,1.01
11,AGGTGGGGAA,1.04
12,GGCTCTGATC,1
13,GAGTACCGAT,0.973
14,CTACGCTGGC,1.54
15,GACTTGGCCG,0.986
16,ATAATGAGTT,1.03
17,GACAAAAGGG,0.96
18,AAACTGCGGT,1.04
19,GAGACACCTT,1.11
20,TGCGAAACGC,1.02
21,CATAAGTCCT,1.02
22,TAAATCCTG,1.02
23,ATTGCGCGCA,1.01

row,Sequence,switch fluorescence ratio
1,TTTGTAGTAG,0.932
2,CGTTTCAATA,1.1
3,GGCATCGCGC,1.01
4,CCTTGCGAAT,1.33
5,GTTCCCG,0.982
6,TGGGACCAAT,0.965
7,CCGGTAGTGG,1.05
8,TACCAAGGCC,1
9,TTACATACG,1.42
10,TTTGGAGCAT,1.45
11,AGTGTGCCGA,0.972
12,TGTTTGCAGT,0.992
13,GGGCGAGGTG,1.03
14,GTTTGTCTTA,0.967
15,CTGAAGGCTA,1.27
16,TTTCGGCCT,1.07
17,CATAAGGTGC,1.55
18,TCATCGGGCC,1.04
19,TTTAGCCGTG,1.01
20,ATTACTTCAT,0.988
21,AAGTGACGGG,1.01
22,CTGCTCGAAC,1.05
23,TTACCGTGGA,1.05

row,Sequence,switch fluorescence ratio
1,AAACCCCCC,1.4
2,TAGGTAAAGC,0.973
3,TGCCGGAGTG,1.01
4,GGGTAAAGCG,0.968
5,TCTGTTAGTC,0.998
6,ACAGTAGTGT,1.02
7,AGAAGACCAT,1.04
8,CCACAATATA,1.78
9,CATAAATGCA,1.01
10,ATCCACGGTG,2.38
11,AGAGTCGACA,1.02
12,CGTTTATAA,0.969
13,CTCGTCACCC,1.05
14,CATTTGCTGG,1.34
15,TTGTGCTTCA,0.986
16,GTTTACGGAA,1.03
17,TCAGTACGCT,1.29
18,ATTCAAAG,1.05
19,TACCGCTAAA,1.33
20,GGGACCGTCC,1.18
21,TCGATACAGC,1.01
22,AGGTGGTGG,1.03
23,AGAGAATGAT,1.02

row,Sequence,switch fluorescence ratio
1,CACGGATTAG,1.02
2,CTTGCTATTG,1.03
3,ATTTATATGG,0.996
4,CGGCGCGTGG,1.02
5,AAGCTACCAG,1.11
6,GAATATCCTT,1.03
7,CCGGCAAAAT,1.04
8,GGGCATAAAA,1.01
9,GTATATTTCC,1.08
10,GACCAATCGA,1.1
11,GATCAGCCAA,1.04
12,GGGTGAAAG,0.98
13,GTCACCTTTC,1.93
14,GCCAGATCCG,1.02
15,GAACTGGGCA,0.989
16,CGCGGGAGCG,0.994
17,AGGAAGCACC,1.16
18,TTCACTCGGT,0.98
19,CCTGGCCTCC,1.83
20,GGGCGTAGAT,1.02
21,AACCGGTAGG,1.04
22,TTGTTCGGC,0.982
23,TGGCGGAGGG,0.978

row,Sequence,switch fluorescence ratio
1,CCAGTGGCGC,1.03
2,ACGTACATG,1.57
3,TACACTTGTG,0.981
4,TATTTAGGAT,1
5,TATTATATGT,1.03
6,GTAAGAAGCG,0.969
7,TGTTCGGGCG,0.999
8,TTCATTCGTG,1.03
9,GATTGCTTGC,1.04
10,TGTTGTACAT,0.941
11,CAAAAAAGGC,1.05
12,AGCGTGCGCC,0.999
13,TCCTACAGGT,1.04
14,CCATTAGATC,1.03
15,AAAAGCCTAT,0.99
16,CGGGTTATTT,0.977
17,TTACTAGG,1.04
18,CCGGCCGGAT,1.06
19,GGTTCGTTCA,1.01
20,GCATCTAGT,0.993

# — the supplement of paper PMC10126150
